B1: PhoQ; a variant is named by its letters at X, in order, P23837 (parent)
chain: MKKLLRLFFPLSLRVRFLLATAAVVLVLSLAYGMVALIGYSVSFDKTTFRLLRGESNLFYTLAKWENNKLHVELPENIDKQSPTMTLIYDENGQLLWAQRDVPWLMKMIQPDWLKSNGFHEIEADVNDTSLLLSGDHSIQQQLQEVREDDDDAEMTHSVAVNVYPATSRMPKLTIVVVDTIPVELKSSYMVWSWFIYVLSANLLLVIPLLWVAAWWSLRPIEALAKEVRELEEHNRELLNPATTRELTSLVRNLNRLLKSERERYDKYRTTLTDLTHSLKTPLXXLQXXLRSLRSEKMSVSDAEPVMLEQISRISQQIGYYLHRASMRGGTLLSRELHPVAPLLDNLTSALNKVYQRKGVNISLDISPEISFVGEQNDFVEVMGNVLDNACKYCLEFVEISARQTDEHLYIVVEDDGPGIPLSKREVIFDRGQRVDTLRPGQGVGLAVAREITEQYEGKIVAGESMLGGARMEVIFGRQHSAPKDE

Some of the results follow. Some results are limits rather than exact numbers.

In this assay the parent is B1. As to the kind of experiment: enrichment ratio after two sorts for PhoP signalling (ratio (wild type AVST 3.29)); higher = more functional. Particulars: with PhoP (E. coli).
As for LSDY, the enrichment ratio is no more than 0.25.

Regarding TQQA, the enrichment ratio came to 2.61.

Consider RRWN, for which the enrichment ratio was no more than 0.25.

In the case of NNSP, the enrichment ratio was no more than 0.25.

For the variant ACGH, the enrichment ratio came out at 13.6.

On to HHMA, for which the enrichment ratio is no more than 0.25.

For the variant YRFG, the enrichment ratio is no more than 0.25.

DRQC: the enrichment ratio is no more than 0.25.

Regarding QTYR, the enrichment ratio was no more than 0.25.

Turning to VPEK, the enrichment ratio is no more than 0.25.

For the variant PKRH, the enrichment ratio is no more than 0.25.

As to WPNK, the enrichment ratio is no more than 0.25.

Take QLWM: the enrichment ratio worked out at 12.6.

RDFW: the enrichment ratio was no more than 0.25.

Turning to MAQR, the enrichment ratio is no more than 0.25.

Turning to AQLN, the enrichment ratio came out at 31.6.

Consider IDYC, for which the enrichment ratio was no more than 0.25.

In the case of MCDY, the enrichment ratio was no more than 0.25.

Take HYDV: the enrichment ratio was no more than 0.25.

For ETQL, the enrichment ratio was no more than 0.25.

In the case of DKEW, the enrichment ratio is no more than 0.25.

On to LGIW, for which the enrichment ratio is no more than 0.25.

As to DQCF, the enrichment ratio is no more than 0.25.

In the case of NYRD, the enrichment ratio is no more than 0.25.

Consider NDPG, for which the enrichment ratio was no more than 0.25.

On to FPVQ, for which the enrichment ratio is no more than 0.25.

Regarding NHRF, the enrichment ratio was no more than 0.25.

On to DFLA, for which the enrichment ratio was no more than 0.25.

For TCRH, the enrichment ratio was no more than 0.25.

For VTHD, the enrichment ratio is no more than 0.25.

On to DHTV, for which the enrichment ratio was no more than 0.25.

On to DTWA, for which the enrichment ratio is no more than 0.25.

Consider PSHM, for which the enrichment ratio was no more than 0.25.

For KCSA, the enrichment ratio was no more than 0.25.

With APAT, the enrichment ratio was no more than 0.25.

On to QKGQ, for which the enrichment ratio is no more than 0.25.

On to EFVT, for which the enrichment ratio is no more than 0.25.

YPVK: the enrichment ratio is no more than 0.25.

In the case of MKWW, the enrichment ratio is no more than 0.25.

In the case of YTTY, the enrichment ratio is no more than 0.25.

On to GFFP, for which the enrichment ratio is no more than 0.25.

In the case of DQMG, the enrichment ratio is no more than 0.25.

In the case of DRCQ, the enrichment ratio is no more than 0.25.

QRQQ: the enrichment ratio is no more than 0.25.

As for DEQC, the enrichment ratio was no more than 0.25.

As to AWRV, the enrichment ratio is no more than 0.25.

On to HEDM, for which the enrichment ratio was no more than 0.25.

Take TRIM: the enrichment ratio was found to be 6.38.

Take IANW: the enrichment ratio is no more than 0.25.

As to DLNM, the enrichment ratio is no more than 0.25.

As to RDII, the enrichment ratio was no more than 0.25.

With PFWE, the enrichment ratio was no more than 0.25.

As to RVLC, the enrichment ratio is no more than 0.25.

As to HFIA, the enrichment ratio was no more than 0.25.

Take FRKY: the enrichment ratio is no more than 0.25.

With VVKS, the enrichment ratio was no more than 0.25.

Take CCPS: the enrichment ratio is no more than 0.25.

For the variant WTPH, the enrichment ratio is no more than 0.25.

With SHHY, the enrichment ratio is no more than 0.25.

For the variant FRRF, the enrichment ratio is no more than 0.25.

With CFPL, the enrichment ratio was no more than 0.25.

Turning to SCCI, the enrichment ratio is 9.92.

Take NGMW: the enrichment ratio is no more than 0.25.

Regarding NGAG, the enrichment ratio was no more than 0.25.

With AGKR, the enrichment ratio was no more than 0.25.

Take TFGD: the enrichment ratio is no more than 0.25.

For RRLP, the enrichment ratio is no more than 0.25.

For the variant FEKS, the enrichment ratio is no more than 0.25.

Take LVGK: the enrichment ratio was no more than 0.25.

As to SDRL, the enrichment ratio was no more than 0.25.

On to YHDK, for which the enrichment ratio was no more than 0.25.

Regarding LVHL, the enrichment ratio is no more than 0.25.

Consider HALP, for which the enrichment ratio is no more than 0.25.

As for RESQ, the enrichment ratio was no more than 0.25.

LGKF: the enrichment ratio was no more than 0.25.

In the case of WRKK, the enrichment ratio was no more than 0.25.

VWTD: the enrichment ratio is no more than 0.25.

With LVSV, the enrichment ratio is no more than 0.25.

For the variant NPTH, the enrichment ratio is no more than 0.25.

Consider KTDL, for which the enrichment ratio is no more than 0.25.

Turning to LHAM, the enrichment ratio was no more than 0.25.

Consider QSTS, for which the enrichment ratio was no more than 0.25.

As for KPGH, the enrichment ratio was no more than 0.25.

On to FVHF, for which the enrichment ratio is no more than 0.25.

Consider WLER, for which the enrichment ratio is no more than 0.25.

Take GYAC: the enrichment ratio is no more than 0.25.

For the variant LGDH, the enrichment ratio was no more than 0.25.

IGEM: the enrichment ratio is no more than 0.25.

For KMQM, the enrichment ratio is no more than 0.25.

Take TMYT: the enrichment ratio is no more than 0.25.

Regarding MTWW, the enrichment ratio was no more than 0.25.

As for KQCP, the enrichment ratio is no more than 0.25.

For the variant DHDQ, the enrichment ratio is no more than 0.25.

For the variant MNKY, the enrichment ratio was no more than 0.25.

Turning to MMSA, the enrichment ratio is no more than 0.25.

With RINC, the enrichment ratio is no more than 0.25.

With FQVT, the enrichment ratio was no more than 0.25.

For the variant GNLM, the enrichment ratio was found to be 17.5.

For SFEN, the enrichment ratio was no more than 0.25.

DWGK: the enrichment ratio is no more than 0.25.

As for HSMG, the enrichment ratio came to 1.29.

For FSQC, the enrichment ratio was no more than 0.25.

For the variant LDAH, the enrichment ratio was no more than 0.25.

As to IRNP, the enrichment ratio was no more than 0.25.

Take VRDP: the enrichment ratio was no more than 0.25.

Regarding IFNC, the enrichment ratio is no more than 0.25.

For the variant QNHF, the enrichment ratio is no more than 0.25.

As to IMMF, the enrichment ratio was no more than 0.25.

For the variant NNAV, the enrichment ratio is 5.85.

With AKMV, the enrichment ratio stood at 6.86.

As to MLVC, the enrichment ratio is no more than 0.25.

Regarding HNPN, the enrichment ratio was no more than 0.25.

Consider MNQF, for which the enrichment ratio is no more than 0.25.

VCRR: the enrichment ratio is no more than 0.25.

Regarding GKQE, the enrichment ratio was no more than 0.25.

In the case of KHWW, the enrichment ratio was no more than 0.25.

As for ARVY, the enrichment ratio was no more than 0.25.

With MDTS, the enrichment ratio was no more than 0.25.

Turning to MYCH, the enrichment ratio was no more than 0.25.

Consider TPHQ, for which the enrichment ratio was no more than 0.25.

Turning to FMGR, the enrichment ratio was no more than 0.25.

As for IPWA, the enrichment ratio is no more than 0.25.

On to DMHF, for which the enrichment ratio is no more than 0.25.

Consider RQDS, for which the enrichment ratio is no more than 0.25.

QPVD: the enrichment ratio is no more than 0.25.

With QRFT, the enrichment ratio was no more than 0.25.

For the variant YATK, the enrichment ratio is no more than 0.25.

On to QQMY, for which the enrichment ratio was no more than 0.25.

Take RWAG: the enrichment ratio was no more than 0.25.

Turning to GLNL, the enrichment ratio was no more than 0.25.

For PKVA, the enrichment ratio is no more than 0.25.

As for HGCY, the enrichment ratio is no more than 0.25.

On to LAYL, for which the enrichment ratio turned out to be 10.5.

For GIIR, the enrichment ratio came to 3.63.

In the case of LKGS, the enrichment ratio was no more than 0.25.

As for TCKG, the enrichment ratio is no more than 0.25.

Take PVFT: the enrichment ratio is no more than 0.25.

For YYTM, the enrichment ratio was no more than 0.25.

In the case of TMMF, the enrichment ratio was no more than 0.25.

With GVNG, the enrichment ratio is no more than 0.25.

With SPSD, the enrichment ratio was no more than 0.25.

Consider WCQF, for which the enrichment ratio was no more than 0.25.

In the case of PVAD, the enrichment ratio is no more than 0.25.

For QYHD, the enrichment ratio was no more than 0.25.

On to HRSR, for which the enrichment ratio is no more than 0.25.

Turning to YFAL, the enrichment ratio is no more than 0.25.

As to QVDW, the enrichment ratio is no more than 0.25.

Take VVWY: the enrichment ratio was no more than 0.25.

Regarding PNMV, the enrichment ratio is no more than 0.25.

In the case of VTNY, the enrichment ratio is no more than 0.25.

VRFP: the enrichment ratio is no more than 0.25.

For the variant SPSQ, the enrichment ratio is no more than 0.25.

On to VYIG, for which the enrichment ratio is no more than 0.25.

Source of the values: a collection of fitness landscapes (doi:10.1126/science.1257360).
